About 4,500 (2.2%) of roughly 200,000 compounds were called active. This list was built around the results that the source calls inconclusive (neither active nor inactive); the mix of calls is not that of the screen. The call rests on the fitted dose curve; in most records, active means well fitted inhibition curve with a large enough effect; inconclusive means small, poorly fitted or top-dose-only effect, or effect the other way; inactive means flat fitted curve, though single readings scatter. Potencies beside an inconclusive call are fits to weak or partial responses and may not hold up.
Biological target: Cruzipain (Trypanosoma cruzi) (UniProt P25779)
Test: qHTS Assay for Promiscuous and Specific Inhibitors of Cruzain (without detergent); further: nearly all actives have a fitted effect of over 40% in size;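 on max response, negative = inhibition: plate controls were enzyme without inhibitor for no effect and buffer without enzyme for full effect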
Settings: purified cruzain, Z-FR-AMC fluorescence, no detergent
In short: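 Detergent-free condition (0.00005% Triton X-100) in acetate buffer pH 5.5 with DTT. 1.5 nM enzyme and compound were pre-mixed 15 min, then 2 uM Z-FR-AMC substrate added; reaction progress from fluorescence change between first and third reads (60 s).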
Potency means the concentration at half of the fitted maximal effect; tags describe the fitted curve by direction and shape.

UniProt P25779, sequence (P25779 whole entry, looked up): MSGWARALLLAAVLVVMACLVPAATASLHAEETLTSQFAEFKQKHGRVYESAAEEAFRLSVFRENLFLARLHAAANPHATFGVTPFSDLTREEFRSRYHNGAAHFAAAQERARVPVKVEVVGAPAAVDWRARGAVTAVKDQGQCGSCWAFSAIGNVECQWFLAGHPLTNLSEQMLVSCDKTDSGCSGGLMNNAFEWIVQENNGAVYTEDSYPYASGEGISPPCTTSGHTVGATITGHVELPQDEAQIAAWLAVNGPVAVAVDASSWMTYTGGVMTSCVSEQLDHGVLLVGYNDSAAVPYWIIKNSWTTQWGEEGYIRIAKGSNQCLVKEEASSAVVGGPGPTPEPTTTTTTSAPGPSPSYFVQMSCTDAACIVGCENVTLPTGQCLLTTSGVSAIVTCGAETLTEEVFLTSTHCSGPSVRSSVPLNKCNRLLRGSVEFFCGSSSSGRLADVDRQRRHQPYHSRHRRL

SMILES | Potency | max response, negative = inhibition
Cc1cccc2cc(C#N)c(SCC(=O)N3CC(=O)Nc4ccccc43)nc12 | active: 25.1 µM | 
O=C(C1CCN(S(=O)(=O)c2cccnc2)CC1)N1CCN(c2cccc(Cl)c2)CC1 | inconclusive: 39.8 µM [activator, single point] | 
CCC[C@@H]1C[C@@]1(CCC)C(NP(=O)(c1ccccc1)c1ccccc1)c1ccc(Cl)cc1 (some centres not stated) |  | inactive: -22.3%
COc1cc(OC)c(OC)cc1/C=N/NC(=O)C[n+]1ccccc1 |  | inactive: -12.6%
Cc1ccc(NC(=O)c2cc(S(=O)(=O)N3CCc4ccccc43)ccc2F)cc1Cl | inconclusive: 10 µM [inhibitor, partial curve, poor fit] | 
O=C(Nc1nc2ccc(Oc3ccccc3)cc2s1)c1cc([N+](=O)[O-])ccc1N1CCOCC1 | active: 15.8 µM | 
C/C=C/C(=O)OCC(=O)Nc1cc([N+](=O)[O-])ccc1Cl | inconclusive: 6.31 µM [activator, single point] | 
CCc1sc(Nc2cccc(C)c2C)nc1-c1cc2cccc(OC)c2oc1=O |  | inactive: 5.43%
COC(=O)c1sc(NC(=O)c2cc(-c3ccccc3)nc3ccccc23)c(C#N)c1C |  | inactive: -19.6%
COc1ccc(-c2cc(C(F)(F)F)nc(SCC(=O)NCCc3ccccc3)n2)cc1OC | inconclusive: 12.6 µM [activator, partial curve] | 
Cc1cc(S(=O)(=O)Nc2ccc(-c3ccc(N4CCCCCC4)nn3)cc2)c(C)cc1Cl | inconclusive: 31.6 µM [inhibitor, single point] | 
CCOC(=O)c1sc(Nc2nc3ccc(OC)cc3s2)cc1C | inconclusive: 0.501 µM [inhibitor, full curve, poor fit] | 
Cc1cc(NC(=O)c2cccc(S(=O)(=O)N(C)C)c2)n(-c2ccccn2)n1 | inconclusive: 31.6 µM [activator, single point] | 
Cc1nc(-c2cccnc2)sc1CCNS(=O)(=O)c1ccc(F)cc1 |  | inactive: -2.67%
CC(=O)Nc1ccc(S(=O)(=O)Nc2nc3ccccc3nc2Nc2ccc(S(N)(=O)=O)cc2)cc1 | inconclusive: 39.8 µM [activator, single point] | 
CCOC(=O)c1sc2nc(N3CCOCC3)c3c(c2c1N)CCC3 | inconclusive: 31.6 µM [activator, partial curve] | 
CCOC(=O)c1cccc(NC(=O)CCn2nc(C)c(S(=O)(=O)N3CCCCC3)c2C)c1 | inconclusive: 39.8 µM [activator, single point] | 
COc1cc(C2c3c(-c4cc(C)ccc4O)n[nH]c3C(=O)N2CCCO)ccc1OCCC(C)C (configuration not stated) | inconclusive: 31.6 µM [activator, single point] | 
COc1ccc(Cn2c(O)c(C=Nc3c(C)n(C)n(-c4ccccc4)c3=O)c(=O)[nH]c2=O)cc1 | inconclusive: 39.8 µM [activator, single point] | 
CCc1ccc2nc(NC(=O)CCCc3cccs3)sc2c1 | inconclusive: 39.8 µM [inhibitor, single point] | 
Cn1c(=O)cc(OCC(=O)N2CCN(c3cccc(C(F)(F)F)c3)CC2)c2ccccc21 | inconclusive: 39.8 µM [activator, single point] | 

SMILES | Potency | max response, negative = inhibition
CCOC(=O)c1ccccc1NC(=O)CSc1nccn1C |  | inactive: 1.44%
O=c1cc(N=Nc2ccc(O)cc2)[nH]c(=O)[nH]1 |  | inactive: 2.9%
NC(=O)c1ccsc1NC(=O)c1ccc2c(c1)CCCC2 | inconclusive: 39.8 µM [inhibitor, single point] | 
COc1ccc(-c2oc(NC(C)=O)c(C#N)c2-c2ccc(OC)cc2)cc1 |  | inactive: 15.5%
O=C(CSc1nnc(NC(=O)Nc2ccccc2)s1)Nc1cccc(F)c1 | inconclusive: 12.6 µM [inhibitor, partial curve] | 
COc1ccc(C(c2c(C)[nH]n(-c3ccccc3)c2=O)c2c(C)[nH]n(-c3ccccc3)c2=O)cc1OC | inconclusive: 31.6 µM [activator, partial curve] | 
C=CCN=C1NN=C(c2cc(C)n(CC=C)c2C)CS1 | active: 25.1 µM | 
COc1cc(/C=C/C(=O)c2c(O)n(CCc3ccccc3)c(=O)[nH]c2=O)ccc1O | inconclusive: 12.6 µM [activator, partial curve] | 
COc1ccc2c(c1)c1nnc(SCC(=O)N3C(C)CCCC3C)nc1n2C (configuration not stated) |  | inactive: -17.1%
CC(O)C#C[Si](C)(C)c1ccccc1 (configuration not stated) |  | inactive: -6.5%
O=C(Nc1ccccc1)NC1(C(=O)NCc2cccs2)CCCCC1 | inconclusive: 39.8 µM [inhibitor, single point] | 
CSc1nc2ccccc2cc1/C=C(\C#N)c1cccc(Cl)c1 | inconclusive: 31.6 µM [inhibitor, single point] | 
COc1cccc(CCNC(=O)c2c(O)nc3ccccn3c2=O)c1 |  | inactive: 5.84%
COc1cc2c(=O)n(CCC(=O)NCC3CCCO3)c(=O)n(CC(=O)Nc3ccc(C)c(C)c3)c2cc1OC (configuration not stated) | inconclusive: 25.1 µM [activator, single point] | 
CCC(C)NC(=O)c1nn(-c2ccc(C)cc2)c(=O)n(C)c1=O (configuration not stated) |  | inactive: 0.582%
Cc1cccc(-c2nc3c(c(SCC(=O)N4CCOCC4)n2)CCCC3)c1 | inconclusive: 39.8 µM [activator, single point] | 
c1ccc(-c2ccc(CN3C[C@@H]4C(c5ccccc5)C5(c6cccnc6)CC4(C5)[C@H]3c3ccccc3)cc2)cc1 (some centres not stated) |  | inactive: -0.575%
CCCCNC(=O)C1c2ccccc2C(=O)N(c2ccc(OC)cc2)C1c1ccc(OC)cc1 (configuration not stated) | inconclusive: 39.8 µM [activator, single point] | 
O=C(NCCc1ccccc1)c1cc(Sc2cccc(Cl)c2)nc2ccccc12 |  | inactive: -2.01%
COC(=O)C1=C(C)N(c2cccc(C)c2)C(=O)/C1=C\c1cccs1 | inconclusive: 39.8 µM [activator, single point] | 
Cc1nn(CC(=O)Nc2ccc3c(c2)oc2ccccc23)c(=O)c2ccccc12 | inconclusive: 39.8 µM [inhibitor, single point] | 
